Where a structure was tested more than once in an assay, its records may differ in their call.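 Single-dose data. Exposure time 48 hours. Values below 10 considered active.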 Not every entry of the source has a single result; some have several. This is not the full list of results. The source may hold further records. The screen tested this drug many times, at its own concentration, as given; one value stands for one run. Brackets with × stand for listed records that agree.
Legend:
[1] = system: SR leukemia; test: NCI-60 one-dose screen, 48 h (100 = growth as untreated, 0 = no growth, -100 = all killed)
[2] = system: RPMI-8226 leukemia; test: as above; conditions: 0.25 µM

SMILES: COc1cccc2c1C(=O)c1c(O)c3c(c(O)c1C2=O)C[C@@](O)(C(=O)CO)C[C@@H]3OC1CC(N)C(O)C(C)O1 (some centres not stated)
- growth ([1]; 0.25 µM, runs of 2021): active: -3.19, 1.33, -3.52, 8.05, 7.35, 7.34, 7.2, 9.97, 7.69 (2×), 8.87, 8.31, 7.23, 6.77, 6.87, 9.95, 0.724, 6.84, 2.55, 8.48, 6.33, -0.651, 5.08, 3.43, 0.235, 5.64 (2×), 4.99, 9.8, 7.95, 8.67, 4.97, -0.92, -2.75, 9.17, 5.68, 7.17, 8.28, 3.73, 0.516, 8.69% and inactive: 11.5 (2×), 23.3, 33.2, 35.3, 16.2, 13, 14.9, 12.9, 13.5, 11.1, 10.1%
- growth ([1]; 0.25 µM, runs of 2022): inactive: 20, 19.4, 20.8, 14, 17.9, 12.3, 21.3, 22.5, 13.8% and active: -31.7, -26.8, 3.54, 9.63, 3.84, 4.45, 7.14, -0.211, 6.93, 3.39, 0.0618%
- growth ([1]; 25 µM, runs of 1991): active: -19.6, -24.5, -29.5, -20.9, -34.4, -21.3, -29.9, -37.2, -29.3% and inactive: 29.6%, 20.6%, 33.5%
- growth ([1]; 25 µM, runs of 1992): active: 1.59, -17, -39.6, -51.6, 5.36, -15.4, -16.9, -40.3, -8.45, -42.7, 1.19, -13.3 (2×), -10.1, -26.9, -10.2, -8.5, -0.297, 2.49, -19.8, -12.2, -46.8, -8.88, -24.5, -27.1, -43.1, -46.2, -24.3, 0.454, -25.7, -39.5, -35.3, -21.3, -45.9, -34.1, 0.152, 5.08, -12.3, 9.24, -39 (2×), -64.1, -31.3, 7.6, -21.7, -8.37, -30.2, -2.68, -0.145, -24, -0.634, -30.9, -44, 1.6, -22, -28.6, -46.6, -43.3, -20.9, -11.1, -38.4, -33.2, -100, -29.6, -2.96, -36.1, -23.2, -31.1, -9.23, -11.2, -22.4, -33.5, -35.6% and inactive: 27.6, 17.1, 11.6, 24.7, 48.8, 27.4, 25.9%
- growth ([1]; 25 µM, runs of 1993): active: -14, -3.21, -32.2, -36.4, -24.6, -10.5, 2.97, 8.16, -16.8, -7.76, -12.3, -29.3, -28.7 (2×), -45.1, -17.9, -11.6, -41.6, -17.1, -35.1, -55, -3.46, -50.7, -35.3, -42.8, -27, -11.9, -12.7, 3.84, -29.6, -5.23% and inactive: 16, 29.6, 14.8, 62.9, 68.1, 19.9, 17.5, 45.3%
- growth ([1]; 25 µM, runs of 1994): active: 0.478, -38.3, 0, 0.623, -3.33, 0.0396, -81.3, -34.6, 1.23, -13.8, 5.66, -20.9, 9.34, -14.2, -6.97, 1.45, -34.8, -10.2, 8.36, -47.2, -33.6, -13.1% and inactive: 48%
- growth ([1]; 25 µM, runs of 1995): active: -26.6, -38.4, -25.7, -42.2, -47.8, -14.3 (2×), -17.1, -13.4, -32.8, -30.6, -18.3, -17.3, 1.24, -36.9, -52.3, -18, -15.8, 7.61, -54.2, -40.7, 4.51, -10.1, -16, -31.1, -8.67, -61.5, -41.5, -41.9, 7.41, -59.3, -18.5, -58.6% and inactive: 13.9%, 15.5%, 12.2%
- growth ([1]; 25 µM, runs of 1996): active: -49.2 (2×), -39.1, -36.9, -20.6 (2×), -29.3, 6.89, -23.7, 5.41, -19.2, -45.2, -43.8, -35, -52.6, -4.34, -17.6, -47.9, -58.6, 9.83, 4.44, -35.7, -38.2, -44.3, -67.6, -56.9, -10.2, -6.59, -47.3, 1.17, -50, -6.72, -49.9, -100, -37.1% and inactive: 19.5, 14.9, 82.9, 37.1, 15.5, 45, 30.5, 76.2, 24.9%
- growth ([1]; 25 µM, runs of 1997): active: -9.72, -14.5, -40, -30.8, -54.9, -63.2, -40.6, 3.63, -28, 3.7, -31.8, -56.9, -35.1, 6.93, -29.5, 6.68, -42.6, 1.59, -30.5, -8.71, -15.8, -16.1% and inactive: 43.1, 24.9, 11.1, 31.6%
- growth ([1]; 25 µM, runs of 1998): active: -23, -25.5, -6.21, -45.3, -41.6, -65.8, 3.29, 2.61, -40.9, -6.43, -15.3, -2.6, -23.9, 4.74, 4.63, -34.9, -39.8% and inactive: 29.7%, 10.4%, 98.4%
- growth ([1]; 25 µM, runs of 1999): active: -12.5, -7.31, -40, -33.9, -73.7, 9%
- growth ([1]; 25 µM, runs of 2000): active: -77.3, 2.63, 9.28, -64.1%
- growth ([2]; runs of 2006): active: -6.69% and inactive: 25.8%
- growth ([2]; runs of 2007): active: 9.29, -12.1, 6.72, -8.47, -11.6 (2×), -9.45, 5.63, -7.3, -3.59, -13.4, -23.3, -1.8, -32.3, 4.24, -3.83, -22.4% and inactive: 10.4, 14.4, 38.5, 60.5, 45.2, 50.2, 33.3, 22.4, 29.4, 78.4, 13.8, 15.2, 20.2, 23.9, 17.9, 25, 31.3, 11.4, 47.9, 87.7, 37.8, 49.4, 14.8, 21.8, 37.5, 41, 30.9, 39.2%
- growth ([2]; runs of 2008): inactive: 25.2, 75.6, 35.4, 13.4, 31.3, 36.6, 69.6, 18.9, 82.4, 18.3, 17.3, 32.9, 24.5, 11.7, 16.3, 19.2, 14.5% and active: -5.07, -23.2 (2×), -23.1, -12.9, -13.5, -5.11, -26.7, -4.76, -18.1, -4.51, -24.7, -17, -17.8, 1.11, -14.3, 0.309, -9.02, -17.6, -41.5, -28.3, 4.71, 2.35, 1.33, 3.05, -14.8, -20.3, 1.23, -14.2, -4.81, -0.564, 0.514, -15.7, -20, -3.4, 1.57%
- growth ([2]; runs of 2009): active: 8.14, 3.09, 8.89, -4.96, -2.68% and inactive: 30.6, 28.2, 47.7, 80.9, 26.8, 35.3, 46.6, 21.6 (2×), 67.2, 59.5, 46.9, 44.6 (2×), 35.5, 33.8, 58.5, 59.9, 38.9, 35.2, 26.7, 33.9, 29.4 (2×), 32.9, 41.7, 54, 37.8, 31.9, 29.9 (2×), 31.3 (2×), 46.8, 53.9, 54.7, 36.4, 39.1, 33, 37.1 (2×), 27.5, 63.1, 65.4, 36, 20.9 (2×), 15.7, 24.6, 40.4, 53.3, 19.8, 28.9, 36.1, 65.7, 45.3, 40.9, 52.3, 48.7, 40.8, 38.1%
- growth ([2]; runs of 2010): inactive: 34.6, 47.4, 50.1, 47.6, 34.3, 53.9, 47.2, 38.4, 44.5, 45.5, 29.8 (2×), 41.1, 53.6, 57.4, 30.8, 40.4, 44.8, 28.1, 29.9, 52.8, 31.4, 29.4, 45.3, 26.9, 39.1, 45.2, 55.7, 14.2, 24.2, 50.8, 37, 28.9, 50.9, 35.7, 37.7, 37.1, 49.1, 37.3, 59.9, 45.4, 43.8 (2×), 58.8, 66.7, 57, 42.3, 48.2, 40% and active: -5.36%, -1.28%, 5.61%
- growth ([2]; runs of 2011): inactive: 31.8, 24, 31.9 (2×), 34.2, 21.5, 49.2, 55.1, 48.9, 12.2, 64.4, 43.5, 44.1 (2×), 54.3, 54.1, 102, 63.2, 69.6, 57.6, 65.3, 35.5, 50.3, 62, 66, 44.3, 45.3, 52.7, 65.1, 45.5 (2×), 40.3, 38.5, 69.7, 41.4, 50.7, 30.4, 33.6, 27.3, 64.6, 52.9 (2×), 55.3, 50.2, 44.6, 43.8, 50.5, 24.2, 38.2, 34.5, 47.6, 51.2, 45.7, 41.6, 39.7%
- growth ([2]; runs of 2012): inactive: 43.8, 21.3 (2×), 49.9 (2×), 64.4, 54.4, 76.1, 30.4, 39.2, 70.9, 56.7, 33.9, 28.2, 27.6, 43.7, 21.9, 14.8, 14.5, 10.9, 24.1, 21.1, 15.2, 11.1, 23.6, 38, 34.9, 35.5, 38.1, 27.3, 25.8 (2×), 26.1, 29, 40.8, 41, 33.7, 34.6, 23.3, 31.3 (2×), 19.8, 33 (2×), 29.5, 77.6, 53.1, 42.5, 35.6 (2×), 30, 68.1, 48.5, 51.8, 39, 33.5, 27.9, 80.5, 44.1, 61.8, 62.8, 37, 28.3, 30.6, 19, 16.1, 33.1, 23.9, 23, 35.1% and active: 8.37%, 5.54%, 2.34%
- growth ([2]; runs of 2013): inactive: 35.1, 23.1, 32.1, 38.8, 34.2, 14.5, 44.6, 36.1, 50.4, 58.9, 86.7, 58.3, 38.7, 55.4, 66.6, 40, 43.9, 49.2, 65.6, 41.1, 22.5, 32.7, 27.3 (2×), 21.1, 32.6, 24.9, 14.4, 10.4, 27.6, 60.1, 48.2 (2×), 42.2, 27.4, 33.8, 64.9, 29.2, 20.4, 86.4, 81.1, 46.1, 62.2, 57, 53.6, 34.9, 45.5, 39.3, 16.5, 22.7, 34.3, 46.5, 63.8, 33.9, 29.6, 45.6, 46.7, 26.7, 29.3, 33, 46.4, 49.6, 37.7, 29.5, 36.3, 29.4, 49.5, 35.7, 22.8, 24.6, 45.7, 31.4% and active: 7.44%, -11.5%
- growth ([2]; runs of 2014): inactive: 35.4, 25.4 (2×), 34.7, 22.9, 25.9 (2×), 34.9, 30.8, 27.4, 20.5, 14.7, 31.9, 17.1, 38.7, 17.2, 46.2, 56.7, 40.3 (3×), 41.4 (3×), 25.2, 29.7, 35.9, 37.4, 27.5, 41.7, 33.1, 28.8, 34.1, 27.9, 29.6, 27.7, 24.9 (2×), 27.8, 29.5, 48 (3×), 42.3, 38.9, 25.6, 42.1, 39.4, 31.1, 52.5, 48.6, 49.2, 53.6, 53.3, 47.5, 50.4 (2×), 46.1, 46, 57.9, 53.5, 43.6, 39.1, 38.5, 43.1, 38.2, 49.5 (2×), 52.1, 51.3, 49, 48.5, 32.7, 48.8, 51.4, 49.8, 39.8, 30.5, 32.5% and active: -3.19%
- growth ([2]; runs of 2015): inactive: 53, 46.1, 39, 45.4, 44.5, 47.5, 43.7, 40.6 (2×), 38, 42.2, 46 (2×), 45.1, 24.8, 22.2, 21.4, 26.5, 25, 31.8, 30.6, 26.1, 29.4 (2×), 27.5, 13, 19.7, 43, 44.3, 32.2 (2×), 23.5 (2×), 31.1, 28.5 (2×), 14.3, 22.9 (2×), 57.5, 54.9, 59.7, 19.5, 33.5 (2×), 35.3, 46.5, 56.3, 39.8 (2×), 33.7, 36.1, 20, 22.7, 27.7, 50.9, 17.4, 19.9, 23.6, 26.8, 14.1, 33.3, 34.9, 32.8, 44.8, 62.9, 63.6, 41.1, 47.6, 37.7, 44.1, 30.9, 39.2, 31, 39.5, 52.7, 51, 48.2, 48.9% and active: 8.21%

Source: PubChem BioAssay (NCI)
